# According to PubChem BioAssay AID686978 (National Center for Advancing Translational Sciences (NCATS), 2013):
# The campaign covered roughly 420,000 compounds. About 64,000 (15%) were called active. This list was built around the results that the source calls inconclusive (neither active nor inactive); the mix of calls is not that of the screen. The call rests on the fitted dose curve; in most records, active means well fitted inhibition curve with a large enough effect; inconclusive means small, poorly fitted or top-dose-only effect; inactive means flat fitted curve, though single readings scatter. No potency is given beside an inconclusive call; the fits are too rough.
# Experiment: qHTS for Inhibitors of human tyrosyl-DNA phosphodiesterase 1 (TDP1): qHTS in cells in absence of CPT; further: nearly all actives have a fitted effect of over 55% in size
# Conditions: DT40 Tdp1-/- hTDP1 cells, no CPT, ATP luminescence, 48 h; series mostly up to 46.2 µM
# Summary of the method: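 Chicken DT40 Tdp1-/- cells complemented with human TDP1, screened without camptothecin (DMSO vehicle only), 400 cells/well. Compounds pin-transferred, cells incubated at 37 °C for at least 48 hr. Growth read as ATP-dependent luminescence (CellTiter-Glo, 30 min at RT).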
# Potency means the concentration at half of the fitted maximal effect; tags describe the fitted curve by direction and shape.
row,SMILES,Potency
1,Cc1ccc(C(=O)N/C(=C/c2ccccc2)C(=O)NC(Cc2ccccc2)C(=O)O)cc1 (stereo not given),inactive
2,CC(=O)OC[C@@H]1CN(Cc2ccccc2)C[C@H](n2cnc3c(N(C)C(C)C)ncnc32)O1,"inconclusive [inhibitor, single point]"
3,COc1ccc(CN2C(=O)c3ccccc3C2c2nnnn2Cc2ccccc2)cc1 (stereo not given),"inconclusive [inhibitor, partial curve, poor fit]"
4,COCCN(C(=O)COC(=O)c1ccc2c(c1)OCCO2)c1c(N)n(Cc2ccccc2)c(=O)[nH]c1=O,inactive
5,COC(=O)c1ccc(CNC(=O)COC(=O)/C=C/c2cccc(OC)c2)cc1,inactive
6,COc1ccc(N(CC(=O)N/N=C/c2ccccc2OC)S(=O)(=O)c2ccccc2)cc1,inactive
7,Cn1c(=O)n(CCN2CCOCC2)c(=O)c2c1nc1n2CCN1c1ccc(Oc2ccccc2)cc1,"inconclusive [inhibitor, single point]"
8,CC(=O)Oc1ccc(C(=O)O)c(OC(C)=O)c1,inactive
9,Nc1nn2c(-c3ccccc3)cc(=O)[nH]c2c1N=Nc1ccc(O)cc1,"inconclusive [inhibitor, single point]"
10,CN(CC(=O)Nc1cccc(F)c1)C(=O)c1cn(-c2ccccc2)nc1-c1ccc(Cl)cc1,"inconclusive [inhibitor, single point]"
11,O=C(Nc1c(C(=O)N2CCN(c3ccc(F)cc3)CC2)oc2ccccc12)c1ccco1,active: 18.4 µM
12,CC(=O)OC1CC(O)C(C)(C)C2CC(OC(C)=O)[C@]3(C)C(CC[C@@]4(C)C(c5ccoc5)OC(=O)C5OC534)[C@]12C (stereo not given in full),inactive
13,Cc1cccc(NS(=O)(=O)c2ccc(C(=O)N3CCCCCC3)cc2)c1C,active: 23.1 µM
14,O=C(CN1CCN(C2CCCCC2)CC1)c1ccc2cc[nH]c2c1,"inconclusive [inhibitor, single point]"
15,COc1ccc(-c2csc(NC(=O)c3ccccc3C(=O)O)n2)cc1,inactive
16,COc1ccc(NC(=O)c2c(C)oc3ccc(O)c(CN4CCN(C)CC4)c23)cc1Cl,active: 18.4 µM
17,Cc1csc(NC(=O)c2cnc3ccccc3n2)n1,"inconclusive [inhibitor, single point]"
18,CCOC(=O)[C@H]1[C@H]2COc3ccc(Br)cc3[C@@H]2N2C(=O)CN(Cc3ccc(C)cc3)C(=O)[C@@]12C,"inconclusive [inhibitor, single point]"
19,CCOC(=O)C1CCCN(CCC(=O)Nc2ccc(OC)cc2OC)C1 (stereo not given),inactive
20,Cc1c(C(=O)OCC(=O)N(CC(C)C)c2c(N)n(Cc3ccccc3)c(=O)[nH]c2=O)oc2ccccc12,"inconclusive [inhibitor, single point]"
